The values that follow come from the supplement of paper PMC12217912.

The other results are listed elsewhere or left out. The full chains were built here from the parent and the listed change. Values near 0.05 are background.

The chains are these.
B1: TEV protease; numbered along this chain (parent)
chain: MGESLFKGPRDYNPISSSICHLTNESDGHTTSLYGIGFGPFIITNKHLFRRNNGTLVVQSLHGVFKVKDTTTLQQHLVDGRDMIIIRMPKDFPPFPQKLKFREPQREERICLVTTNFQTKSMSSMVSDTSCTFPSGDGIFWKHWIQTKDGQCGSPLVSTRDGFIVGIHSASNFTNTNNYFTSVPKNFMELLTNQEAQQWVSGWRLNADSVLWGGHKVFMVKPEEPFQPVKEATQL

Variants of B1 are the subject of this test. Nature of the test: raw area under fraction-flipped curve 0-4 h after induction (AUC4h, not background-subtracted), DNA-recorder readout of cleavage of the substrate (dimensionless); higher = more cleavage of the substrate by the protease variant. The note with it: temperature: 34 °C; time window: 0-4 h after rhamnose induction. The protocol: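 In vivo DNA recorder in E. coli TOP10(DE3) ΔrhaA at 34 °C. Each TEVp single-site mutant (parent TEVp 0) is paired with a single-site variant of the 7-mer TEVs (canonical ENLYFQ|S). The substrate sits between flexible linkers in a Bxb1-sfGFP-TEVs-SsrA fusion, so cleavage stabilises Bxb1 and speeds flipping of a recombination array, read by NGS. The value is the raw area under the fraction-flipped curve over 0-4 h after rhamnose induction (AUC4h), with ≥20 reads per time point. It is not background-subtracted; inactive controls average about 0.047.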
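Note: Bxb1 expression induced with 0.2% (w/v) L-rhamnose at OD600 near 0.5, cultures sampled hourly, flipped fraction per protease–substrate barcode pair counted by paired-end Illumina sequencing.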

Take MGESLFKKPRDYNPISSSICHLTNESDGHTTSLYGIGFGPFIITNKHLFRRNNGTLVVQSLHGVFKVKDTTTLQQHLVDGRDMIIIRMPKDFPPFPQKLKFREPQREERICLVTTNFQTKSMSSMVSDTSCTFPSGDGIFWKHWIQTKDGQCGSPLVSTRDGFIVGIHSASNFTNTNNYFTSVPKNFMELLTNQEAQQWVSGWRLNADSVLWGGHKVFMVKPEEPFQPVKEATQL [G8K]: the “area with substrate ANLYFQS” value is 0.0556, the “area with substrate GNLYFQS” value turned out to be 0.0618, the “area with substrate HNLYFQS” value was determined as 0.0486 and the “area with substrate INLYFQS” value is 0.0456. For the same variant, the “area with substrate KNLYFQS” value stood at 0.0589, the “area with substrate LNLYFQS” value was determined as 0.0672 and the “area with substrate MNLYFQS” value was found to be 0.075.

In the case of MGESLFKFPRDYNPISSSICHLTNESDGHTTSLYGIGFGPFIITNKHLFRRNNGTLVVQSLHGVFKVKDTTTLQQHLVDGRDMIIIRMPKDFPPFPQKLKFREPQREERICLVTTNFQTKSMSSMVSDTSCTFPSGDGIFWKHWIQTKDGQCGSPLVSTRDGFIVGIHSASNFTNTNNYFTSVPKNFMELLTNQEAQQWVSGWRLNADSVLWGGHKVFMVKPEEPFQPVKEATQL [G8F], the “area with substrate ANLYFQS” value came out at 0.0599, the “area with substrate CNLYFQS” value turned out to be 0.0672, the “area with substrate HNLYFQS” value was found to be 0.0522 and the “area with substrate KNLYFQS” value stood at 0.0268. The “area with substrate LNLYFQS” value amounted to 0.0467, the “area with substrate MNLYFQS” value came out at 0.0691, the “area with substrate NNLYFQS” value worked out at 0.0727 and the “area with substrate PNLYFQS” value is 0.063. For the same variant, the “area with substrate TNLYFQS” value worked out at 0.0533, the “area with substrate VNLYFQS” value came out at 0.0607 and the “area with substrate WNLYFQS” value stood at 0.076.

On to MGESEFKGPRDYNPISSSICHLTNESDGHTTSLYGIGFGPFIITNKHLFRRNNGTLVVQSLHGVFKVKDTTTLQQHLVDGRDMIIIRMPKDFPPFPQKLKFREPQREERICLVTTNFQTKSMSSMVSDTSCTFPSGDGIFWKHWIQTKDGQCGSPLVSTRDGFIVGIHSASNFTNTNNYFTSVPKNFMELLTNQEAQQWVSGWRLNADSVLWGGHKVFMVKPEEPFQPVKEATQL [L5E], for which the “area with substrate ANLYFQS” value was 0.0559, the “area with substrate CNLYFQS” value came to 0.0691, the “area with substrate DNLYFQS” value came out at 0.122 and the “area with substrate FNLYFQS” value amounted to 0.056. In addition, the “area with substrate GNLYFQS” value was found to be 0.0779, the “area with substrate KNLYFQS” value was determined as 0.0812, the “area with substrate LNLYFQS” value worked out at 0.0677 and the “area with substrate MNLYFQS” value was 0.0657. In addition, the “area with substrate NNLYFQS” value was 0.0543, the “area with substrate QNLYFQS” value was 0.0814, the “area with substrate SNLYFQS” value came out at 0.0787 and the “area with substrate TNLYFQS” value came out at 0.0649. Besides, the “area with substrate WNLYFQS” value is 0.0596 and the “area with substrate YNLYFQS” value amounted to 0.0699.

Take MGESLFKGPRWYNPISSSICHLTNESDGHTTSLYGIGFGPFIITNKHLFRRNNGTLVVQSLHGVFKVKDTTTLQQHLVDGRDMIIIRMPKDFPPFPQKLKFREPQREERICLVTTNFQTKSMSSMVSDTSCTFPSGDGIFWKHWIQTKDGQCGSPLVSTRDGFIVGIHSASNFTNTNNYFTSVPKNFMELLTNQEAQQWVSGWRLNADSVLWGGHKVFMVKPEEPFQPVKEATQL [D11W]: the “area with substrate ANLYFQS” value was determined as 0.061, the “area with substrate CNLYFQS” value amounted to 0.0649, the “area with substrate DNLYFQS” value amounted to 0.0737 and the “area with substrate FNLYFQS” value was 0.047. Besides, the “area with substrate GNLYFQS” value was 0.0713, the “area with substrate HNLYFQS” value is 0.0721, the “area with substrate INLYFQS” value came out at 0.0624 and the “area with substrate KNLYFQS” value worked out at 0.0719. Further, the “area with substrate LNLYFQS” value is 0.0598, the “area with substrate MNLYFQS” value came to 0.0642, the “area with substrate NNLYFQS” value was 0.0853 and the “area with substrate PNLYFQS” value was 0.059. In addition, the “area with substrate QNLYFQS” value came to 0.0621, the “area with substrate TNLYFQS” value was 0.0546, the “area with substrate WNLYFQS” value came to 0.0539 and the “area with substrate YNLYFQS” value was 0.067.

For MGESLFKGPRDYSPISSSICHLTNESDGHTTSLYGIGFGPFIITNKHLFRRNNGTLVVQSLHGVFKVKDTTTLQQHLVDGRDMIIIRMPKDFPPFPQKLKFREPQREERICLVTTNFQTKSMSSMVSDTSCTFPSGDGIFWKHWIQTKDGQCGSPLVSTRDGFIVGIHSASNFTNTNNYFTSVPKNFMELLTNQEAQQWVSGWRLNADSVLWGGHKVFMVKPEEPFQPVKEATQL [N13S], the “area with substrate ANLYFQS” value came out at 0.0589, the “area with substrate CNLYFQS” value was 0.073, the “area with substrate DNLYFQS” value amounted to 0.0687 and the “area with substrate FNLYFQS” value turned out to be 0.0522. Further, the “area with substrate GNLYFQS” value amounted to 0.0733, the “area with substrate HNLYFQS” value was determined as 0.0519, the “area with substrate INLYFQS” value is 0.0649 and the “area with substrate KNLYFQS” value came to 0.0718. The “area with substrate LNLYFQS” value came to 0.0635, the “area with substrate MNLYFQS” value came to 0.0665, the “area with substrate PNLYFQS” value was found to be 0.0716 and the “area with substrate RNLYFQS” value worked out at 0.0601. The “area with substrate SNLYFQS” value came out at 0.0662, the “area with substrate TNLYFQS” value came out at 0.0734, the “area with substrate VNLYFQS” value stood at 0.0689 and the “area with substrate WNLYFQS” value was determined as 0.0561. In addition, the “area with substrate YNLYFQS” value worked out at 0.0661.

With MGESLFKGPRDYTPISSSICHLTNESDGHTTSLYGIGFGPFIITNKHLFRRNNGTLVVQSLHGVFKVKDTTTLQQHLVDGRDMIIIRMPKDFPPFPQKLKFREPQREERICLVTTNFQTKSMSSMVSDTSCTFPSGDGIFWKHWIQTKDGQCGSPLVSTRDGFIVGIHSASNFTNTNNYFTSVPKNFMELLTNQEAQQWVSGWRLNADSVLWGGHKVFMVKPEEPFQPVKEATQL [N13T], the “area with substrate ANLYFQS” value worked out at 0.0764, the “area with substrate CNLYFQS” value was 0.0728, the “area with substrate DNLYFQS” value turned out to be 0.0709 and the “area with substrate FNLYFQS” value was 0.0479. Further, the “area with substrate GNLYFQS” value is 0.0834, the “area with substrate HNLYFQS” value is 0.077, the “area with substrate INLYFQS” value turned out to be 0.0948 and the “area with substrate KNLYFQS” value worked out at 0.0518. Moreover, the “area with substrate MNLYFQS” value was determined as 0.0671, the “area with substrate PNLYFQS” value is 0.0695, the “area with substrate QNLYFQS” value is 0.0946 and the “area with substrate SNLYFQS” value worked out at 0.0686. Moreover, the “area with substrate TNLYFQS” value is 0.0688, the “area with substrate VNLYFQS” value turned out to be 0.0672, the “area with substrate WNLYFQS” value worked out at 0.075 and the “area with substrate YNLYFQS” value was determined as 0.063.

Turning to MGESLFKGPKDYNPISSSICHLTNESDGHTTSLYGIGFGPFIITNKHLFRRNNGTLVVQSLHGVFKVKDTTTLQQHLVDGRDMIIIRMPKDFPPFPQKLKFREPQREERICLVTTNFQTKSMSSMVSDTSCTFPSGDGIFWKHWIQTKDGQCGSPLVSTRDGFIVGIHSASNFTNTNNYFTSVPKNFMELLTNQEAQQWVSGWRLNADSVLWGGHKVFMVKPEEPFQPVKEATQL [R10K], the “area with substrate ANLYFQS” value turned out to be 0.0452, the “area with substrate CNLYFQS” value is 0.0608, the “area with substrate DNLYFQS” value is 0.0747 and the “area with substrate FNLYFQS” value worked out at 0.0642. Besides, the “area with substrate GNLYFQS” value was found to be 0.077, the “area with substrate HNLYFQS” value worked out at 0.069, the “area with substrate INLYFQS” value was 0.0311 and the “area with substrate KNLYFQS” value was 0.0445. Also, the “area with substrate LNLYFQS” value is 0.0593, the “area with substrate MNLYFQS” value was 0.0582, the “area with substrate PNLYFQS” value was 0.0643 and the “area with substrate QNLYFQS” value was determined as 0.0897. The “area with substrate SNLYFQS” value stood at 0.0703, the “area with substrate VNLYFQS” value worked out at 0.056, the “area with substrate WNLYFQS” value amounted to 0.0681 and the “area with substrate YNLYFQS” value came to 0.0584.

Regarding MGESLFKGPSDYNPISSSICHLTNESDGHTTSLYGIGFGPFIITNKHLFRRNNGTLVVQSLHGVFKVKDTTTLQQHLVDGRDMIIIRMPKDFPPFPQKLKFREPQREERICLVTTNFQTKSMSSMVSDTSCTFPSGDGIFWKHWIQTKDGQCGSPLVSTRDGFIVGIHSASNFTNTNNYFTSVPKNFMELLTNQEAQQWVSGWRLNADSVLWGGHKVFMVKPEEPFQPVKEATQL [R10S], the “area with substrate ANLYFQS” value was 0.0676, the “area with substrate CNLYFQS” value amounted to 0.0622, the “area with substrate DNLYFQS” value amounted to 0.0702 and the “area with substrate FNLYFQS” value stood at 0.0611. The “area with substrate HNLYFQS” value was 0.0656, the “area with substrate INLYFQS” value was found to be 0.0409, the “area with substrate KNLYFQS” value amounted to 0.0658 and the “area with substrate LNLYFQS” value was 0.0702. Further, the “area with substrate NNLYFQS” value is 0.0579, the “area with substrate PNLYFQS” value was 0.069, the “area with substrate SNLYFQS” value worked out at 0.101 and the “area with substrate TNLYFQS” value turned out to be 0.0692. Moreover, the “area with substrate WNLYFQS” value was 0.0559 and the “area with substrate YNLYFQS” value is 0.0605.

Take MGEDLFKGPRDYNPISSSICHLTNESDGHTTSLYGIGFGPFIITNKHLFRRNNGTLVVQSLHGVFKVKDTTTLQQHLVDGRDMIIIRMPKDFPPFPQKLKFREPQREERICLVTTNFQTKSMSSMVSDTSCTFPSGDGIFWKHWIQTKDGQCGSPLVSTRDGFIVGIHSASNFTNTNNYFTSVPKNFMELLTNQEAQQWVSGWRLNADSVLWGGHKVFMVKPEEPFQPVKEATQL [S4D]: the “area with substrate ANLYFQS” value worked out at 0.0671, the “area with substrate CNLYFQS” value amounted to 0.0684, the “area with substrate DNLYFQS” value is 0.0867 and the “area with substrate GNLYFQS” value was 0.0685. Also, the “area with substrate HNLYFQS” value was determined as 0.0928, the “area with substrate KNLYFQS” value worked out at 0.0533, the “area with substrate LNLYFQS” value is 0.0667 and the “area with substrate MNLYFQS” value came out at 0.0569. Besides, the “area with substrate NNLYFQS” value was 0.0735, the “area with substrate PNLYFQS” value is 0.0583, the “area with substrate RNLYFQS” value came out at 0.0612 and the “area with substrate SNLYFQS” value was 0.0664. Further, the “area with substrate TNLYFQS” value is 0.092, the “area with substrate VNLYFQS” value is 0.0556, the “area with substrate WNLYFQS” value worked out at 0.0447 and the “area with substrate YNLYFQS” value worked out at 0.0649.
